Out of some 310,000 compounds screened, about 14,000 (4.5%) showed an effect of 50% or more. Effects have a minus sign here. Some of the results follow.
target: human ether-à-go-go-related gene (hERG) potassium channel (human, UniProt Q12809); assay: primary screen, population patch clamp on CHO cells stably expressing hERG
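Note: peak tail current of the secondary pulse compared with the same well before compound.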

Chain of human ether-à-go-go-related gene (hERG) potassium channel (Q12809 whole entry, looked up): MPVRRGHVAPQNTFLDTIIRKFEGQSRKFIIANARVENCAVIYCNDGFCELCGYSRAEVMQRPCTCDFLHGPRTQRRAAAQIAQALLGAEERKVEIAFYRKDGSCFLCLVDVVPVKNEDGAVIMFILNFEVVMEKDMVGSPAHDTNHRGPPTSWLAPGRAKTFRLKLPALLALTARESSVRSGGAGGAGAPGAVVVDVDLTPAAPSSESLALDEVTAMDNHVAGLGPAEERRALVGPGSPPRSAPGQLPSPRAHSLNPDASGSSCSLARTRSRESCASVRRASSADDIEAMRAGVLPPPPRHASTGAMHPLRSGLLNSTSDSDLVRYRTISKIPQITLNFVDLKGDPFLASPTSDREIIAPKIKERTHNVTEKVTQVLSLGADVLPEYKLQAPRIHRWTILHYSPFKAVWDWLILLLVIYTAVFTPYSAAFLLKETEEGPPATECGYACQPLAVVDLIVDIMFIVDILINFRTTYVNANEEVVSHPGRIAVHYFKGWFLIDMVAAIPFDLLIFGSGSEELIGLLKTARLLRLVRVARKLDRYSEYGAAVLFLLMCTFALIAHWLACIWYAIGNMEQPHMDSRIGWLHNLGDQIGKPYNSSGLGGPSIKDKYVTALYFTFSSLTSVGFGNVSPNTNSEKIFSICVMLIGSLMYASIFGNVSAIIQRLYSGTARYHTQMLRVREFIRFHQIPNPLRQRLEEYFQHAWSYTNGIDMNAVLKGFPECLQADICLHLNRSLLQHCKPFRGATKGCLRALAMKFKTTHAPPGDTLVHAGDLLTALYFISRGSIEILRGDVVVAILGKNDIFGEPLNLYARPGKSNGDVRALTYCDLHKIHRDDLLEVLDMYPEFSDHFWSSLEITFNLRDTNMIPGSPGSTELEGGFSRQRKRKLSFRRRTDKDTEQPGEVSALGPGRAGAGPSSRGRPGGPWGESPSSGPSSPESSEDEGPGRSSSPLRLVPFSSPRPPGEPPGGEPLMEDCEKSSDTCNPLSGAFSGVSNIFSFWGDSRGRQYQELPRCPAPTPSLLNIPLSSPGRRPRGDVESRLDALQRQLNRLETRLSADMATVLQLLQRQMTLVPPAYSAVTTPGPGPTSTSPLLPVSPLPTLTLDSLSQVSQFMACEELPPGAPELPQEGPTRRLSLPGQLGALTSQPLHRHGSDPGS

Going from COc1ccc(CCNC(=O)CCC(=O)c2cccs2)cc1OC to COc1cccc(Cn2nnc(C(=O)NCCc3ccc(Cl)cc3)c2N)c1, the “hERG current change (%, negative = inhibition) at 10uM” value falls from 19.3% to 5.57%.

Compared with Cc1c(NC(=S)NNC(=O)CCC(=O)O)c(=O)n(-c2ccccc2)n1C, Cc1c(N=NC2=C(O)CCCC2=O)c(=O)n(-c2ccccc2)n1C is higher in “hERG current change (%, negative = inhibition) at 10uM” value: -1.62% for the first, 21.2% for the second.

Compared with Cc1c(NC(=O)Nc2ccc(Cl)c(Cl)c2)sc(=S)n1C, Cc1ccc(NC(=S)N2CCN(S(C)(=O)=O)CC2)cc1Cl is higher in “hERG current change (%, negative = inhibition) at 10uM” value: -5.64% for the first, 18.5% for the second.

Compared with Cc1ccc2c(c1)NC(=O)C(CC(=O)NCc1cccnc1)O2 (centres unmarked), CNC(=O)Cn1c(C)cc(=O)c2cccc(C)c21 is higher in “hERG current change (%, negative = inhibition) at 10uM” value: -8.29% for the first, -0.558% for the second.

Going from O=c1c2ccccc2nc2n1CCS2 to CN1CC[n+]2cnc3ccccc3c21.[I-], the “hERG current change (%, negative = inhibition) at 10uM” value rises from -2.26% to 11.5%.

Compared with Cc1c(CCC(=O)O)c(=O)oc2cc(OCc3ccccc3Br)ccc12, O=C(COc1cc(O)c2c(=O)cc(-c3ccccc3)oc2c1)c1ccc(F)cc1 is lower in “hERG current change (%, negative = inhibition) at 10uM” value: 15.5% for the first, 13% for the second.

First: COC(=O)c1cc(OC)c(OC)cc1NC(=O)c1cc(C(C)(C)C)oc1C
Second: COCCN(C(=O)c1cc(OC)c(OC)c(OC)c1)c1c(N)n(Cc2ccccc2)c(=O)[nH]c1=O
The “hERG current change (%, negative = inhibition) at 10uM” value of the first is lower: 5.71% for the first, 19.8% for the second.

Going from O=C(NC1CCN(Cc2ccccc2)CC1)c1c(Cl)cccc1Cl to Nc1nc(CN2CCC(Cc3ccccc3)CC2)nc(Nc2ccccc2)n1, the “hERG current change (%, negative = inhibition) at 10uM” value falls from -10.7% to -82%.

Compared with Cc1cc2ncn(N)c2cc1C, COc1ccc(-c2cc(C)nc3nc(N)nn23)cc1 is higher in “hERG current change (%, negative = inhibition) at 10uM” value: -9.37% for the first, -0.694% for the second.

Compared with Cc1ccsc1C(=O)NC1CCCN(Cc2ccc(Cl)cc2)C1 (centres unmarked), O=C(Nc1ccc(Cl)cc1)N1CCCN(Cc2ccccc2F)C1 is higher in “hERG current change (%, negative = inhibition) at 10uM” value: -56.2% for the first, -26.3% for the second.

Going from CCc1cccc2c1NC1(CCCC1)CC2C.Cl (centres unmarked) to c1ccc2c(CN3CCCCC3)c[nH]c2c1, the “hERG current change (%, negative = inhibition) at 10uM” value falls from 12.2% to -38%.

First: Cc1ccc2c(c1)C(c1ccncc1)=NNC(c1ccccc1)=N2
Second: COc1ccccc1NS(=O)(=O)c1cccc(C(=O)NCc2ccncc2)c1
The “hERG current change (%, negative = inhibition) at 10uM” value of the first is higher: 11.6% for the first, 8.75% for the second.

First: COC(=O)c1ccc(-c2ccco2)n1Cc1ccccc1Cl
Second: CC(Sc1nnc(-c2ccco2)n1-c1ccccc1)C(=O)NCC1CCCO1 (centres unmarked)
The “hERG current change (%, negative = inhibition) at 10uM” value of the first is higher: -1.48% for the first, -20.3% for the second.

Going from CCOC(=O)c1nnc(-c2ccc(C)cc2)nc1Oc1ccc(Cl)cc1Cl to COc1ccc(C(C)=O)cc1CSc1nnc2c(Cl)cc(Cl)cn12, the “hERG current change (%, negative = inhibition) at 10uM” value falls from 11% to -11.6%.

Compared with O=C(CNC(c1ccccc1)c1ccccc1)Nc1ccc(F)cc1, NC(=O)[C@@H]1CC2(CC(c3cccc(NC(=O)CC(c4ccccc4)c4ccccc4)c3)=NO2)CN1C(=O)COc1ccc(Cl)cc1 (some centres unmarked) is higher in “hERG current change (%, negative = inhibition) at 10uM” value: -11.3% for the first, 12.5% for the second.

Compared with c1ccc(COC2CCCN(Cc3nc(-c4cnccn4)no3)C2)nc1 (centres unmarked), Fc1ccc(-c2nc(-c3cnccn3)no2)c(Cl)c1 is higher in “hERG current change (%, negative = inhibition) at 10uM” value: 10.5% for the first, 13.7% for the second.

First: Cc1nc2c(cc(Oc3ccc(S(=O)(=O)N4CCOCC4)cn3)c3ccsc32)s1
Second: Cc1ccc(C(=O)Oc2ccc(Br)cc2C(=S)N2CCOCC2)cc1
The “hERG current change (%, negative = inhibition) at 10uM” value of the first is lower: 4.7% for the first, 18% for the second.

Going from Cc1ccccc1/C=N/N1CCN(c2ccccc2)CC1 to O=C(Nc1ccnn1C1CCN(CCCc2ccccc2)CC1)c1ccccc1, the “hERG current change (%, negative = inhibition) at 10uM” value falls from -5.16% to -80.8%.

Going from CCNC(=O)c1ccccc1NC(=O)c1cccc(S(=O)(=O)N2CCC(C)CC2)c1 to CCn1c(C)nc2cc(C(=O)NNS(=O)(=O)c3ccccc3F)ccc21, the “hERG current change (%, negative = inhibition) at 10uM” value rises from -55.4% to 5.94%.

Going from CCOC(=O)C1(CCCc2ccccc2)CCN(C(=O)c2cc(C)nn2CC)CC1 to CN1CCN(C(=O)c2cc(-c3ccccc3)on2)CC1, the “hERG current change (%, negative = inhibition) at 10uM” value rises from -57.8% to -4.93%.

Going from Cc1ccc(S(=O)(=O)Nc2cc(=O)[nH]c(SCc3ccccc3Cl)n2)cc1 to Cc1ccc(C)c(S(=O)(=O)Nc2ccc(S(=O)(=O)Nc3ncccn3)cc2)c1, the “hERG current change (%, negative = inhibition) at 10uM” value falls from 12.4% to -2.43%.

Compared with CCN(CC)CCCN(C(=O)c1ccc(F)cc1)c1nc(-c2ccc(OC)cc2)cs1, CCN(CC)C(=O)c1ccc(N(Cc2ccccc2)S(C)(=O)=O)cc1 is higher in “hERG current change (%, negative = inhibition) at 10uM” value: -75.1% for the first, -0.944% for the second.

Compared with CCC(C)(C)n1nnnc1C(c1ccc2ncccc2c1)N1CCCC(C)C1 (centres unmarked), Cc1nc2cc(F)ccc2n1C1CCN(C(=O)c2ccc(F)cc2F)CC1 is lower in “hERG current change (%, negative = inhibition) at 10uM” value: -13.6% for the first, -56.4% for the second.

Compared with CCCn1c(SCC(=O)N2CCN(c3ccc(OC)cc3)CC2)nc2c1c(=O)n(C)c(=O)n2C, COc1ccccc1N1CCN(C(=O)C2CCC(Cn3c(=S)[nH]c4ccccc4c3=O)CC2)CC1 (centres unmarked) is higher in “hERG current change (%, negative = inhibition) at 10uM” value: -36% for the first, 17.2% for the second.

Going from Cc1ccc(C)c(S(=O)(=O)N2CCCOC2CNC(=O)C(=O)NC2CCCC2)c1 (centres unmarked) to Cc1cc(Cl)ccc1OC(C)C(=O)NNC(=O)C1CCCCC1C(=O)O (centres unmarked), the “hERG current change (%, negative = inhibition) at 10uM” value rises from -11.4% to 2.35%.

First: COc1ccc(NC(=O)C23CC4CC(C2)CC(c2ccccc2)(C4)C3)c(OC)c1
Second: COc1ccc(NC(=O)C2CCCN2C(=O)Oc2ccccc2)cc1 (centres unmarked)
The “hERG current change (%, negative = inhibition) at 10uM” value of the first is lower: 5.59% for the first, 18.7% for the second.

First: COc1ccc([N+](=O)[O-])cc1NS(=O)(=O)Cc1ccccc1
Second: COC(=O)c1ccc(Oc2coc3cc(OCc4ccc([N+](=O)[O-])cc4)ccc3c2=O)cc1
The “hERG current change (%, negative = inhibition) at 10uM” value of the first is higher: 11.1% for the first, 10.4% for the second.

Compared with O=C(COc1ccccc1Br)Nc1ccc2c(c1)OCCCO2, Nn1c(SCC(=O)Nc2ccc3c(c2)OCO3)nnc1C1CC1 is lower in “hERG current change (%, negative = inhibition) at 10uM” value: 12.8% for the first, 7.91% for the second.

First: Cc1cc(NC(=O)c2ccc(S(=O)(=O)N(C)C)cc2)n(-c2ccccn2)n1
Second: CC(C)(C)C(=O)Nc1ccc(S(=O)(=O)Nc2nccs2)cc1
The “hERG current change (%, negative = inhibition) at 10uM” value of the first is lower: 0.346% for the first, 7.16% for the second.

First: COCCNC(=O)CSCc1c(F)cccc1Cl
Second: CSCCNC(=O)c1cccc(Cl)c1
The “hERG current change (%, negative = inhibition) at 10uM” value of the first is lower: 3.73% for the first, 14.3% for the second.

Going from CC(C)NS(=O)(=O)c1ccc2c3c(cccc13)CC2 to O=C1COc2ccccc2CN1, the “hERG current change (%, negative = inhibition) at 10uM” value falls from 7.86% to 3.05%.

Compared with CN(C(=O)c1ccccc1)C1(C)CCS(=O)(=O)C1 (centres unmarked), CC1=C(C(=O)Nc2ccccc2)C(c2ccc3c(c2)OCO3)C2=C(CCCC2=O)N1 (centres unmarked) is lower in “hERG current change (%, negative = inhibition) at 10uM” value: -4.82% for the first, -14.2% for the second.

First: Cc1c(O)ccc(/C(Cc2ccc3ccccc3n2)=N\N)c1O
Second: O=C(Cc1ccc(F)cc1)OCC(=O)c1cc2ccccc2o1
The “hERG current change (%, negative = inhibition) at 10uM” value of the first is higher: 8.89% for the first, -2.43% for the second.

First: CCN(CC)C(=O)CN1CCN(c2ncccn2)CC1.O=C(O)C(=O)O
Second: O=C(c1ccc(Br)o1)N1CCN(CCc2ccncc2)CC1
The “hERG current change (%, negative = inhibition) at 10uM” value of the first is higher: 0.024% for the first, -69.8% for the second.

Going from CCOc1ccc(N(CC(=O)N2CC=C(c3ccccc3)CC2)S(=O)(=O)c2c(C)noc2C)cc1 to COc1ccc(C2c3[nH]c4ccccc4c3C[C@H]3C(=O)N(c4ccccc4C(=O)N4CCC(C(=O)O)CC4)C(=O)N23)cc1 (some centres unmarked), the “hERG current change (%, negative = inhibition) at 10uM” value rises from -5.17% to 9.67%.

First: CCOc1nc(C)ccc1-c1noc(-c2ccco2)n1
Second: N#Cc1c(-c2cccc(Br)c2)cc(-c2ccco2)[nH]c1=O
The “hERG current change (%, negative = inhibition) at 10uM” value of the first is lower: 9.95% for the first, 20.3% for the second.

Compared with CS/C(=C\[N+](=O)[O-])Nc1ccc(OC(F)(F)F)cc1, COc1ccc(CCC(=O)Nc2nnc(C(C)(C)C)s2)cc1 is higher in “hERG current change (%, negative = inhibition) at 10uM” value: -3.41% for the first, 22.5% for the second.

Going from COc1ccc(C2=NOC(CNC(N)=S)C2)cc1 (centres unmarked) to CC(C)(C)c1ccc(-c2cnco2)cc1, the “hERG current change (%, negative = inhibition) at 10uM” value falls from 20.8% to -26.7%.

Compared with CC(C)(C)c1nnc(NC(=O)COc2ccc3c(c2)OCO3)s1, Cc1ccc(N2CC(C(=O)Nc3nnc(C(C)C)s3)CC2=O)cc1 (centres unmarked) is lower in “hERG current change (%, negative = inhibition) at 10uM” value: 7.39% for the first, -2.24% for the second.

Compared with CC1(C)C=C2[C@H]3CC[C@@H]4[C@@]5(C)CCC(=O)C(C)(C)[C@@H]5CC[C@@]4(C)[C@]3(C)CC[C@@]2(C(=O)O)CC1, COC(=O)C1=C(CSc2nncn2C)NC(=O)NC1c1cc(C)ccc1C (centres unmarked) is lower in “hERG current change (%, negative = inhibition) at 10uM” value: -1.05% for the first, -12.1% for the second.

Going from CC1CCC(=C(C#N)c2nc(-c3cc4ccccc4oc3=O)cs2)CC1 (centres unmarked) to O=C(Nc1ccc(S(=O)(=O)N2CCCCC2c2cccnc2)cc1)c1c(F)cccc1F (centres unmarked), the “hERG current change (%, negative = inhibition) at 10uM” value falls from 7.86% to -4.98%.

Compared with CCOC(=O)c1c(C)[nH]c(C(=O)OCC(=O)N(C)C2CCS(=O)(=O)C2)c1C (centres unmarked), CCOC(=O)Cc1nnc(NC(=O)C(CC)Sc2nc(C)cc(=O)[nH]2)s1 (centres unmarked) is lower in “hERG current change (%, negative = inhibition) at 10uM” value: 13.9% for the first, 4.2% for the second.

First: Cc1ccc(C(=O)O/N=C(\N)Cc2cccs2)c(Cl)c1
Second: CC(/C=C/c1ccco1)=N\NC(=O)C(O)c1ccccc1 (centres unmarked)
The “hERG current change (%, negative = inhibition) at 10uM” value of the first is lower: 0.558% for the first, 13% for the second.

Going from CCN(CC)CC(O)CCCCCCCCC(=O)OC.Cl (centres unmarked) to CCOC(=O)CN1C(=O)C(=O)N(Cc2c(C)cc(C)cc2C)C1=O, the “hERG current change (%, negative = inhibition) at 10uM” value rises from 10.3% to 16.9%.

With Cc1sc2nc(CN3CCOCC3)nc(Cl)c2c1C the “hERG current change (%, negative = inhibition) at 10uM” value was 12.4%.

Reference: publication PMC4336329 (PLoS ONE, 2015)
